Reference: a collection of fitness landscapes (doi:10.1126/science.1257360)
Some of the results follow.

B1: PhoQ; a variant is named by its letters at X, in order, P23837 (parent)
chain: MKKLLRLFFPLSLRVRFLLATAAVVLVLSLAYGMVALIGYSVSFDKTTFRLLRGESNLFYTLAKWENNKLHVELPENIDKQSPTMTLIYDENGQLLWAQRDVPWLMKMIQPDWLKSNGFHEIEADVNDTSLLLSGDHSIQQQLQEVREDDDDAEMTHSVAVNVYPATSRMPKLTIVVVDTIPVELKSSYMVWSWFIYVLSANLLLVIPLLWVAAWWSLRPIEALAKEVRELEEHNRELLNPATTRELTSLVRNLNRLLKSERERYDKYRTTLTDLTHSLKTPLXXLQXXLRSLRSEKMSVSDAEPVMLEQISRISQQIGYYLHRASMRGGTLLSRELHPVAPLLDNLTSALNKVYQRKGVNISLDISPEISFVGEQNDFVEVMGNVLDNACKYCLEFVEISARQTDEHLYIVVEDDGPGIPLSKREVIFDRGQRVDTLRPGQGVGLAVAREITEQYEGKIVAGESMLGGARMEVIFGRQHSAPKDE

Variants of: B1
Test: enrichment ratio after two sorts for PhoP signalling (ratio (wild type AVST 3.29)); higher = more functional
Conditions: with PhoP (E. coli)

| Variant | enrichment ratio |
| --- | --- |
| MKYT | ≤ 0.25 |
| MVSH | ≤ 0.25 |
| HVYR | ≤ 0.25 |
| TYIC | ≤ 0.25 |
| TGDD | ≤ 0.25 |
| AITN | 22.4 |
| NCFI | ≤ 0.25 |
| NIVS | ≤ 0.25 |
| FYTA | ≤ 0.25 |
| WTDD | ≤ 0.25 |
| HISP | ≤ 0.25 |
| STFD | ≤ 0.25 |
| RCFM | ≤ 0.25 |
| DDLK | ≤ 0.25 |
| GFMQ | ≤ 0.25 |
| NQQA | ≤ 0.25 |
| NETH | ≤ 0.25 |
| YVSW | ≤ 0.25 |
| RCTF | ≤ 0.25 |
| YIPC | ≤ 0.25 |
| VFCS | ≤ 0.25 |
| IRRV | ≤ 0.25 |
| GRRP | ≤ 0.25 |
| MHWL | ≤ 0.25 |
| ERNP | ≤ 0.25 |

| Variant | enrichment ratio |
| --- | --- |
| WKSR | ≤ 0.25 |
| LPRC | ≤ 0.25 |
| QVKR | ≤ 0.25 |
| ACMM | 14.1 |
| QNIA | ≤ 0.25 |
| IWTP | ≤ 0.25 |
| GGVI | 1.85 |
| DIHI | ≤ 0.25 |
| WEAD | ≤ 0.25 |
| AYCK | ≤ 0.25 |
| LLYD | ≤ 0.25 |
| VNEV | ≤ 0.25 |
| MINC | ≤ 0.25 |
| HKWN | ≤ 0.25 |
| PDLS | ≤ 0.25 |
| HDPQ | ≤ 0.25 |
| GLFC | ≤ 0.25 |
| TMGP | ≤ 0.25 |
| HLQN | ≤ 0.25 |
| KLIS | ≤ 0.25 |
| GQER | ≤ 0.25 |
| QVNL | ≤ 0.25 |
| PPNM | ≤ 0.25 |
| WLVG | ≤ 0.25 |
| WMAV | ≤ 0.25 |

| Variant | enrichment ratio |
| --- | --- |
| TLTD | ≤ 0.25 |
| TYAH | 0.357 |
| ISSH | ≤ 0.25 |
| LQVK | ≤ 0.25 |
| IRRS | ≤ 0.25 |
| DEMH | ≤ 0.25 |
| REPC | ≤ 0.25 |
| GPVE | ≤ 0.25 |
| FRGI | ≤ 0.25 |
| QCNI | ≤ 0.25 |
| GCNP | ≤ 0.25 |
| FTWW | ≤ 0.25 |
| WDAR | ≤ 0.25 |
| IIVK | ≤ 0.25 |
| YALD | ≤ 0.25 |
| VHYY | ≤ 0.25 |
| KYTT | ≤ 0.25 |
| RSIY | ≤ 0.25 |
| QRAT | ≤ 0.25 |
| MTYR | ≤ 0.25 |
| MSML | 14.3 |
| QRNW | ≤ 0.25 |
| ANIF | ≤ 0.25 |
| RLEC | ≤ 0.25 |
| PKHN | ≤ 0.25 |

| Variant | enrichment ratio |
| --- | --- |
| ATDR | ≤ 0.25 |
| WVWG | ≤ 0.25 |
| LYPH | ≤ 0.25 |
| TDKC | ≤ 0.25 |
| RHHW | ≤ 0.25 |
| FCKQ | ≤ 0.25 |
| NKRD | ≤ 0.25 |
| TGNN | 8.27 |
| RHGP | ≤ 0.25 |
| GKAE | ≤ 0.25 |
| GCFL | ≤ 0.25 |
| HCYR | ≤ 0.25 |
| SINM | 1.07 |
| RWHS | ≤ 0.25 |
| QVNQ | ≤ 0.25 |
| KHDW | ≤ 0.25 |
| RTDH | ≤ 0.25 |
| MQMF | ≤ 0.25 |
| RDYH | ≤ 0.25 |
| KQWM | ≤ 0.25 |
| QRVA | ≤ 0.25 |
| FHWM | ≤ 0.25 |
| FSPI | ≤ 0.25 |
| IDAV | ≤ 0.25 |
| MNGS | ≤ 0.25 |

| Variant | enrichment ratio |
| --- | --- |
| ANWD | ≤ 0.25 |
| VGCA | ≤ 0.25 |
| YHHL | ≤ 0.25 |
| AWLH | ≤ 0.25 |
| YFVH | 0.389 |
| NESI | ≤ 0.25 |
| SRKP | ≤ 0.25 |
| PCKP | ≤ 0.25 |
| AEPM | 0.861 |
| IWMA | ≤ 0.25 |
| QELH | ≤ 0.25 |
| NSCD | ≤ 0.25 |
| RQFN | ≤ 0.25 |
| WHNY | ≤ 0.25 |
| MQIK | ≤ 0.25 |
| PYLN | ≤ 0.25 |
| WSNR | ≤ 0.25 |
| HTSM | ≤ 0.25 |
| GFDA | ≤ 0.25 |
| MGPP | ≤ 0.25 |
| LVLS | ≤ 0.25 |
| WFII | ≤ 0.25 |
| HHPY | ≤ 0.25 |
| TWNI | ≤ 0.25 |
| MEWH | 7.92 |

| Variant | enrichment ratio |
| --- | --- |
| EIYN | ≤ 0.25 |
| SEFW | ≤ 0.25 |
| KNVW | ≤ 0.25 |
| SKLH | 3.7 |
| TSVV | 3.8 |
| GHMI | ≤ 0.25 |
| EFRY | ≤ 0.25 |
| MNYG | ≤ 0.25 |
| QIKA | ≤ 0.25 |
| SMLS | 6.78 |
| KDKS | ≤ 0.25 |
| NHTM | ≤ 0.25 |
| KRQT | ≤ 0.25 |
| FAVP | ≤ 0.25 |
| NAGV | ≤ 0.25 |
| VILI | 1.68 |
| DPLE | ≤ 0.25 |
| GNGW | ≤ 0.25 |
| QPSQ | ≤ 0.25 |
| LCVL | ≤ 0.25 |
| IDYE | ≤ 0.25 |
| DRHM | ≤ 0.25 |
| GTGA | ≤ 0.25 |
| DDVF | ≤ 0.25 |
| HMIK | ≤ 0.25 |

| Variant | enrichment ratio |
| --- | --- |
| RFNR | ≤ 0.25 |
| LSIY | ≤ 0.25 |
| YSLF | 3.76 |
| KFFK | ≤ 0.25 |
| PFSW | ≤ 0.25 |
| LRQP | ≤ 0.25 |
| LKTA | ≤ 0.25 |
| MRVL | ≤ 0.25 |
| WMGL | ≤ 0.25 |
| KLEA | ≤ 0.25 |
| MKMC | ≤ 0.25 |
| DQFH | ≤ 0.25 |
| HHDQ | ≤ 0.25 |
| DRHF | ≤ 0.25 |
| EVHP | ≤ 0.25 |
| TPKS | ≤ 0.25 |
| NNVE | ≤ 0.25 |
| VAIW | ≤ 0.25 |
| RDMF | ≤ 0.25 |
| PHDG | ≤ 0.25 |
| RSLD | ≤ 0.25 |
| FSDF | ≤ 0.25 |
| QPRC | ≤ 0.25 |
| VERS | ≤ 0.25 |
| GIHK | ≤ 0.25 |

| Variant | enrichment ratio |
| --- | --- |
| AKKR | ≤ 0.25 |
| WIKK | ≤ 0.25 |
| PVPG | ≤ 0.25 |
| GRTS | ≤ 0.25 |
| RRDW | ≤ 0.25 |
| GEIK | ≤ 0.25 |
| SQPY | ≤ 0.25 |
| KVMH | ≤ 0.25 |
| HARQ | ≤ 0.25 |
| THEM | ≤ 0.25 |
| VMDM | ≤ 0.25 |
| TKLA | 4.75 |
| QQMT | ≤ 0.25 |
| HRMI | ≤ 0.25 |
| SYIM | ≤ 0.25 |
| ANKG | ≤ 0.25 |
| YISW | 0.368 |
| VDHL | ≤ 0.25 |
| EDHS | ≤ 0.25 |
| TKPC | ≤ 0.25 |
